From the supplement of paper PMC11181314 come the findings set out here.

This test relates to U2OS. In words: Cell Painting induction (percent of morphological features significantly changed vs DMSO); higher = stronger morphological change. The note with it: 10 µM, 20 h. The method, then: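 Cell Painting assay in U2OS cells: compounds at 10 µM for 20 h, six dyes, 579 robust CellProfiler features as Z-scores vs DMSO median (MAD). Induction is the % of significantly changed features (active if ≥5%); relative cell count is in % of DMSO. The primary run holds DCM compounds preselected for induction ≥10%; the confirmation repeat defines active compounds (370 of 549). Replicate agreement is low, attributed to precipitation.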

Setting [1] is: run: primary screen (compounds selected for induction >=10%).

The list shows a part of the results. Single values of this set are uncertain.
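Further: stains mark DNA, RNA and nucleoli, ER, actin, Golgi, plasma membrane and mitochondria, read by high-content imaging, with DMSO controls at matching solvent concentration.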

With `Cc1ccc(Nc2cc(C(=O)NCCCN3CCOCC3)c3ccccc3n2)c(C)c1`, the “Cell Painting induction” value is, setting by setting: (run: confirmation repeat) active: 36.1%; under setting [1], 14.5%.

For the compound `COc1ccc(N2CCN(CCCNS(=O)(=O)c3ccc4c(c3)oc(=O)n4C)CC2)cc1`, the “Cell Painting induction” value was active: 21.1% (run: confirmation repeat) and 27.8% under setting [1].

For `Cc1ccc(Nc2nc3c(S(=O)(=O)c4ccc(C(C)(C)C)cc4)nnn3c3ccccc23)cc1C`, the “Cell Painting induction” value is inactive: 0% (run: confirmation repeat) and 17.8% under setting [1].

Regarding `CCOC(=O)C1CCCN(C(=O)c2ccc3c(c2)N(Cc2ccccc2)C(=O)c2ccccc2S3=O)C1` (stereo not drawn), the “Cell Painting induction” value runs as follows: (run: confirmation repeat) inactive: 4.1%; under setting [1], 10.9%.

Take `O=C(NCCCN1CCOCC1)c1ccc2c(=O)n(Cc3ccc(Cl)cc3)c(=S)[nH]c2c1`: the “Cell Painting induction” value reads like this: (run: confirmation repeat) active: 52.3%; under setting [1], 57.5%.

Regarding `CCOc1ccc(NC(=O)CSc2nc3ccccc3nc2N2CC(C)OC(C)C2)cc1` (stereo not drawn), the “Cell Painting induction” value (run: confirmation repeat) was active: 10.5% and the “Cell Painting induction” value under setting [1] stood at 10.2%.

Turning to `COc1ccc(-c2cn3c(C)c(C(=O)N4CCN(c5ccc(F)cc5)CC4)sc3n2)cc1`, the “Cell Painting induction” value was inactive: 0% (run: confirmation repeat) and 27.3% under setting [1].

`CCc1cc(C(=O)N/N=C/c2ccc(OC)cc2)c2ccccc2n1`: the “Cell Painting induction” value was active: 65.1% (run: confirmation repeat) and 49.6% under setting [1].

With `CCOc1ccc(N(Cc2cc3cc(C)ccc3nc2O)S(=O)(=O)c2ccccc2)cc1`, the “Cell Painting induction” value runs as follows: (run: confirmation repeat) active: 18.5%; under setting [1], 29.5%.
